Laboratory results as given in paper PMC6919601, “Identification of Plasmodium dipeptidyl aminopeptidase allosteric inhibitors by high throughput screening” (PLoS ONE, 2019).
Hit rate of the full screen: of about 110,000 compounds, about 230 (0.21%) showed an effect of 50% or more. The list shows a part of the results.

molecular target: DPAP1 (Plasmodium falciparum, UniProt Q8IIJ9); test: primary screen, percent inhibition; read by cleavage of a fluorogenic dipeptide substrate; higher = more effect of the substance; set-up: species or system P. falciparum D10 trophozoite lysates; single well
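Also: 30 min substrate incubation versus DMSO and 10 µM JCP410 controls.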

Chain of DPAP1 (Q8IIJ9 whole entry, looked up): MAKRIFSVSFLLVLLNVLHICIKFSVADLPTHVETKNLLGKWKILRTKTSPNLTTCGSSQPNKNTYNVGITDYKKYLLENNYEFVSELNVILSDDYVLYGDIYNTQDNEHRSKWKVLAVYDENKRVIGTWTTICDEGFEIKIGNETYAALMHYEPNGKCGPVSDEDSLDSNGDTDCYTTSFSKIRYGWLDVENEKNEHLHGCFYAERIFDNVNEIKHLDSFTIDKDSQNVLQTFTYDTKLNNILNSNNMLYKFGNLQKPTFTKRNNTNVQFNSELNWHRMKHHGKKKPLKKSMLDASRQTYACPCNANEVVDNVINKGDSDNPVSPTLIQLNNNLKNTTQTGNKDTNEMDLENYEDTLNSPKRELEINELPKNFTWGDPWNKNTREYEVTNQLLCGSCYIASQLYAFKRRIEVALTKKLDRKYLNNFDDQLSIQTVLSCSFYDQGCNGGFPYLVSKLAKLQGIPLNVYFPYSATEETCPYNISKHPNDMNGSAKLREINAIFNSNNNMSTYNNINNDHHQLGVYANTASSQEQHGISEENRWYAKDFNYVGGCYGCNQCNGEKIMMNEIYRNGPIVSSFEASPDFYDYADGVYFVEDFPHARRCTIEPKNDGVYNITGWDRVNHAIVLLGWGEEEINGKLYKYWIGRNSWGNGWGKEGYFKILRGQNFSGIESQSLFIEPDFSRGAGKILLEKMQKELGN

SMILES | % Inhibition @ 10 uM [%]
OC1CCCN(Cc2ccc(-c3ccccc3)cc2)C1 (stereo not shown) | 5.55
COc1ccc(Cl)cc1-c1ccc(/C=C2\SC(=N)N(c3nonc3NC(C)=O)C2=O)o1 | -3.04
O=C(/C=C/c1ccc(Cl)cc1Cl)N1CCN(c2ccc(F)cc2)CC1 | -2.2
O=C(NCC1CCCO1)C1CC(=O)N(CCc2ccccc2)C1 (stereo not shown) | -0.0542
CN(C)CCCNc1oc(-c2ccc(F)cc2)nc1C#N | 0.315
Cc1cccc2c1-c1sc(C(=O)NCCN(C)C)cc1CO2 | -3.3
COc1nc(OC)nc(Oc2ccccc2)n1 | -3.79
O=C(C1=NNCC1c1ccccc1Cl)c1ccccn1 (stereo not shown) | 2.65
Cn1c2ccccc2n2cc(C(C)(C)C)nc12 | 1.43
O=C(c1sc2cc(Cl)ccc2c1Cl)N1CCNCC1 | 3.19
O=C(Nc1ccc(-c2cn3ccsc3n2)cc1)c1cccc(Cl)c1 | 6.24
CCOC(=O)N1CCN(CCc2ccccc2)CC1 | -5.11
Cc1ccc(CNC(=O)c2sc3ccc(S(=O)(=O)N4CCCCC4)cc3c2N)cc1 | 9.45
COc1ccc(-c2cc(C(F)(F)F)n3ncc(C(=O)NCc4cccnc4)c3n2)cc1 | -4.29
CCOC(=O)c1ccc(NC(=O)CCC(=O)O)cc1 | 4.54
CCN(CC)CCn1c(N)nc2ccccc21 | 0.827
CCn1cc(CCCC(=O)N2CCN(Cc3ccccc3)CC2)c2ccccc21 | -3.18
CC(C)(C)C1CCc2c(sc(NC(=O)c3ccc(F)cc3)c2C(N)=O)C1 (stereo not shown) | 3.53
CCN(CC)CCCNC(=O)Cn1ncc2c3ccccc3n(C)c2c1=O | -3.67
CCN1CCC2(CC1)OC(=O)C(C)=C2C(=O)N1CCCC1 | -1.58
Cc1ccc(C(=O)N/C(=C/c2ccco2)C(=O)Nc2ccc(Cl)cc2)cc1 | -6.62
CC1CN(c2nc(-c3ccc(Cl)cc3Cl)nc3ccccc23)CC(C)O1 (stereo not shown) | 0.487

SMILES | % Inhibition @ 10 uM [%]
COCCCNCCn1cnc2c(N)ncnc21 | -1.72
COc1ccc(-c2c(C)sc(NC(=O)c3ccnn3C)c2C#N)cc1 | -4
Cc1c2cnn(CC(=O)NCCCN3CCCC3=O)c(=O)c2c(C)n1Cc1ccc(F)cc1 | -2.17
CCS(=O)(=O)N1CCC2(CC1)OC(=O)C(C)=C2C(=O)NC(C)CCc1ccccc1 (stereo not shown) | -0.518
Cc1c(Br)c([N+](=O)[O-])nn1CC(=O)N1CCN(C)CC1 | 5.03
CC1(C)Cc2c(ccc3ccccc23)C(Cc2ccccc2)N1 (stereo not shown) | -1.26
COc1ccc(NC(=O)/C(=C/c2ccccc2)NC(C)=O)cc1 | 4.03
CCOc1ccccc1CNC(=O)c1ccc(-c2nc(CS(=O)(=O)c3ccccc3)c(C)o2)cc1 | -7.09
Cc1ccccc1NC1=C(Cl)C(=O)N(c2ccccc2)C1=O | -4.48
Cc1cccc2sc(N(CCN(C)C)C(=O)C3CCCCC3)nc12 | -0.12
COc1ccc(-c2noc(CC(=O)N3CC(C)CC(C)C3)n2)cc1 (stereo not shown) | 2.49
CC(C)(C)NS(=O)(=O)c1ccc(NC(=O)c2ccc(Cl)cc2Cl)cc1 | -5.69
C/N=C/C1=C(O)C(C)(C)Oc2ccc3ccc(=O)oc3c21 | 2.1
CCOc1ccc(NC2=NC(=O)C(CC(=O)Nc3cc(C)ccc3C)S2)cc1 (stereo not shown) | 1.62
COc1ccc(C2CC(SCC(=O)c3ccccc3)=Nc3ncnn32)cc1 (stereo not shown) | 9.54
COc1ccc2c(=O)c(-c3ccccc3OC)c(C(F)(F)F)oc2c1 | 3.25
O=C(CN1CC(=O)N2CCCC2C1=O)NCCc1ccc(Cl)cc1 (stereo not shown) | 0.372
COc1ccc(C2Oc3ccccc3C3CC(c4cc(C)ccc4O)=NN32)c(OC)c1 (stereo not shown) | -3.48
CC1CCCC(C)N1CCNC(=O)CN1N=C(c2ccccc2)CCC1=O (stereo not shown) | 5.35
O=C(NCc1ccco1)c1ccc(CSc2nc3ccncc3n2Cc2ccc(F)cc2)cc1 | 5.73
CCOc1ccc(-c2csc(NC(=O)c3cccnc3)n2)cc1 | 25.5
CCc1[nH]nc2c1C(c1ccc(OC(F)F)cc1)C(C#N)=C(N)O2 (stereo not shown) | -4.48

SMILES | % Inhibition @ 10 uM [%]
O=S(=O)(Nc1nc2ccccc2s1)c1ccc(F)cc1 | 4.3
Cc1ccc2c3c1C(=O)C(=O)N3C(C)(C)CC2(C)c1ccccc1 (stereo not shown) | 0.231
CCC(C)C1C(C#N)=C(N)OC2=C1C(=O)CC(C)(C)C2 (stereo not shown) | 1.82
Cc1ccc(CN(C(=O)c2cc3ccccc3oc2=O)C2CCS(=O)(=O)C2)o1 (stereo not shown) | 3.77
CS(=O)(=O)CC[C@@H](C(=O)NCCCc1ccccc1)N1Cc2ccccc2C1=O | -2.25
Cn1c(=O)[nH]c(=O)c2c1nc(N1CCN(CCO)CC1)n2Cc1ccccc1Cl | 5.43
CCc1ccc(OCC2c3cc(OC)c(OC)cc3CCN2C(=O)C(C)C)cc1 (stereo not shown) | -4.82
CC(C)c1ccc(OCC(=O)Nc2ccc(S(=O)(=O)N3CCCC3)cc2)cc1 | 2.01
CCOC(=O)C1=C(C)N=C2SC=C(c3ccccc3)N2C1c1ccccc1 (stereo not shown) | -3.78
COC(=O)c1ccc(CN2CCCN(C)CC2)cc1 | 0.273
COc1cc(OC)cc(-c2n[nH]c(N)n2)c1 | 3.94
CC(=O)c1ccc(NC(=O)CC2SC(N)=NC2=O)cc1 (stereo not shown) | 5.83
Cc1nc2c(sc3nc4c(cc32)COC(C)(C)C4)c(=O)n1CCc1ccccc1 | 1.64
CS(=O)(=O)N(CC(=O)Nc1cccc2ccccc12)c1cccc(F)c1 | 14
Cn1ccc(C(=O)Nc2cnn(Cc3c(Cl)cccc3Cl)c2)n1 | -1.28
C=CCO/C(O)=C1/C(C)=Nc2nc3ccccc3n2C1c1ccc(C)o1 (stereo not shown) | -5.19
O=C(c1ccccc1)C(c1ccccc1)N1CCCC1 (stereo not shown) | 3.05
COc1ccc(CN2CCC(O)CC2)cc1Br | -4.35
COc1ccc(CNC(=O)C2CCCN2S(=O)(=O)c2cccc3nsnc23)cc1 (stereo not shown) | -4.1
Cc1nc2c(c(C)nn2C(C)(C)C)c(C)c1CCC(=O)NC(C)c1ccccc1 (stereo not shown) | -2.45
